From the supplement of paper PMC10369915
This is one part of the list. Cut-off read from the data, not from the text of the source: active = 3.2 or more and inactive = the rest. Only a few entries rise above the background.

B1: TP53_Y220_P222A (peptide)
chain: SVVVPYEAPEV
B2: TMEM43_Y233_Y233C (peptide)
chain: SENPKCPEVGD
B3: TP53_Y220_S215C (peptide)
chain: CVVVPYEPPEV
B4: TP53_Y220_E224K (peptide)
chain: SVVVPYEPPKV
B5: TNS2_Y668_A670T (peptide)
chain: TGDFGYRTPGY
B6: TP53_Y126_T125M (peptide)
chain: SVTCMYSPALN
B7: TP53_Y220_P219S (peptide)
chain: SVVVSYEPPEV
B8: TP53_Y126_C124R (peptide)
chain: SVTRTYSPALN
B9: TNC_Y1775 (peptide)
chain: IPGVEYLVSII
B10: TP53_Y126_A129V (peptide)
chain: SVTCTYSPVLN
B11: TMIGD2_Y197 (peptide)
chain: YSNVLYRPRGA
B12: TP53_Y220_P223R (peptide)
chain: SVVVPYEPREV
B13: TMEM230_Y112_R108C (peptide)
chain: YCGYSYDDIPD
B14: TP53_Y126_P128A (peptide)
chain: SVTCTYSAALN
B15: TNS1_Y796_YF (peptide)
chain: RSFSPYDFQPC
B16: TMEM230_Y110_R108C_YF (peptide)
chain: KGFCGYSFDDI
B17: TP53_Y126_T125K (peptide)
chain: SVTCKYSPALN
B18: TNIK_Y40_R43P_YF (peptide)
chain: TFGQVYKGPHV
B19: TP53_Y220_V216G (peptide)
chain: SGVVPYEPPEV
B20: TP53_Y220_S215T (peptide)
chain: TVVVPYEPPEV
B21: TP53_Y220_P219C (peptide)
chain: SVVVCYEPPEV
B22: TP53_Y126_P128S (peptide)
chain: SVTCTYSSALN
B23: TP53_Y126_L130H (peptide)
chain: SVTCTYSPAHN
B24: TP53_Y220_V216A (peptide)
chain: SAVVPYEPPEV
B25: TNS1_Y793 (peptide)
chain: PPGRSYSPYDY
B26: TP53_Y220_P222L (peptide)
chain: SVVVPYELPEV
B27: TNNT2_Y251_E254D (peptide)
chain: LWQSIYNLDAE
B28: TP53_Y126_L130V (peptide)
chain: SVTCTYSPAVN
B29: TNS3_Y601 (peptide)
chain: VVAHQYSFAPD
B30: TOP1_Y723 (peptide)
chain: TSKLNYLDPRI
B31: TP53_Y126_L130R (peptide)
chain: SVTCTYSPARN
B32: TP53_Y126_V122L (peptide)
chain: SLTCTYSPALN
B33: TP53_Y126_C124W (peptide)
chain: SVTWTYSPALN
B34: TNNI3_Y29_H34Q (peptide)
chain: SNYRAYATEPQ
B35: TNS3_Y601_Q600H (peptide)
chain: VVAHHYSFAPD
B36: TNNI3_Y29 (peptide)
chain: SNYRAYATEPH
B37: TMEM230_Y112 (peptide)
chain: YRGYSYDDIPD

Biological target: SHP2 C-SH2 domain E139D
Assay: enrichment score (SH2-bound / input frequency) (ratio); bacterial display of known human phosphotyrosine sites (pTyr-Var adds point mutants) read by sequencing; higher = stronger binding; tyrosines were phosphorylated by kinases first
Conditions: peptide library: pTyr-Var
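Note: displayed peptides selected on beads carrying the immobilized SH2 domain, with library peptides lacking any tyrosine serving as negative controls.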

Row | Binder | enrichment score
1 | B1 | inactive: 0.779
2 | B2 | inactive: 0.522
3 | B3 | inactive: 1.13
4 | B4 | inactive: 0.719
5 | B5 | inactive: 0.659
6 | B6 | inactive: 0.733
7 | B7 | inactive: 0.778
8 | B8 | inactive: 0.573
9 | B9 | inactive: 1.2
10 | B10 | inactive: 0.908
11 | B11 | inactive: 0.308
12 | B12 | inactive: 0.966
13 | B13 | inactive: 1.06
14 | B14 | inactive: 0.584
15 | B15 | inactive: 0.674
16 | B16 | inactive: 0.811
17 | B17 | inactive: 0.632
18 | B18 | inactive: 0.567
19 | B19 | inactive: 0.74

Row | Binder | enrichment score
20 | B20 | inactive: 1.1
21 | B21 | inactive: 0.818
22 | B22 | inactive: 0.565
23 | B23 | inactive: 0.977
24 | B24 | inactive: 0.813
25 | B25 | inactive: 0.417
26 | B26 | inactive: 0.865
27 | B27 | inactive: 1
28 | B28 | inactive: 0.885
29 | B29 | inactive: 0.895
30 | B30 | inactive: 0.819
31 | B31 | inactive: 0.882
32 | B32 | inactive: 1
33 | B33 | inactive: 0.662
34 | B34 | inactive: 0.451
35 | B35 | inactive: 1.25
36 | B36 | inactive: 0.472
37 | B37 | inactive: 1.06

Biological target: SHP2 C-SH2 domain wild-type
Assay: as above
Conditions: peptide library: pTyr-Var

Row | Binder | enrichment score
38 | B1 | inactive: 0.833
39 | B2 | inactive: 0.508
40 | B3 | inactive: 1.39
41 | B4 | inactive: 0.839
42 | B5 | inactive: 0.567
43 | B6 | inactive: 0.852
44 | B7 | inactive: 0.733
45 | B8 | inactive: 0.811
46 | B9 | inactive: 1.09
47 | B10 | inactive: 1.78
48 | B11 | inactive: 0.233
49 | B12 | inactive: 1.18
50 | B13 | inactive: 1.26
51 | B14 | inactive: 0.918
52 | B15 | inactive: 0.759
53 | B16 | inactive: 0.889
54 | B17 | inactive: 0.68
55 | B18 | inactive: 0.538
56 | B19 | inactive: 0.551

Row | Binder | enrichment score
57 | B20 | inactive: 1.02
58 | B21 | inactive: 0.926
59 | B22 | inactive: 0.74
60 | B23 | inactive: 1.22
61 | B24 | inactive: 0.612
62 | B25 | inactive: 0.676
63 | B26 | inactive: 0.807
64 | B27 | inactive: 1.62
65 | B28 | inactive: 1.2
66 | B29 | inactive: 0.705
67 | B30 | inactive: 0.938
68 | B31 | inactive: 1.11
69 | B32 | inactive: 1.36
70 | B33 | inactive: 0.7
71 | B34 | inactive: 0.541
72 | B35 | inactive: 1.55
73 | B36 | inactive: 0.428
74 | B37 | inactive: 0.853

Biological target: SHP2 N-SH2 domain L43F
Assay: as above
Conditions: peptide library: pTyr-Var

Row | Binder | enrichment score
75 | B1 | inactive: 0.977
76 | B2 | inactive: 0.627
77 | B3 | inactive: 0.914
78 | B4 | inactive: 0.749
79 | B5 | inactive: 0.49
80 | B6 | inactive: 0.993
81 | B7 | inactive: 0.957
82 | B8 | inactive: 0.705
83 | B9 | inactive: 1.14
84 | B10 | inactive: 1.4
85 | B11 | inactive: 0.354
86 | B12 | inactive: 1.24
87 | B13 | inactive: 0.925
88 | B14 | inactive: 0.809
89 | B15 | inactive: 0.563
90 | B16 | inactive: 0.783
91 | B17 | inactive: 0.615
92 | B18 | inactive: 0.449
93 | B19 | inactive: 0.724

Row | Binder | enrichment score
94 | B20 | inactive: 0.789
95 | B21 | inactive: 0.786
96 | B22 | inactive: 0.643
97 | B23 | inactive: 0.959
98 | B24 | inactive: 0.792
99 | B25 | inactive: 0.64
100 | B26 | inactive: 1
101 | B27 | inactive: 1.02
102 | B28 | inactive: 1.05
103 | B29 | inactive: 2.32
104 | B30 | active: 3.71
105 | B31 | inactive: 0.81
106 | B32 | inactive: 1
107 | B33 | inactive: 0.673
108 | B34 | inactive: 0.431
109 | B35 | inactive: 1.52
110 | B36 | inactive: 0.391
111 | B37 | inactive: 0.854

Biological target: SHP2 N-SH2 domain T42A
Assay: as above
Conditions: peptide library: pTyr-Var

Row | Binder | enrichment score
112 | B1 | inactive: 0.747
113 | B2 | inactive: 0.531
114 | B3 | inactive: 0.642
115 | B4 | inactive: 0.621
116 | B5 | inactive: 0.476
117 | B6 | inactive: 0.897
118 | B7 | inactive: 0.745
119 | B8 | inactive: 0.484
120 | B9 | inactive: 1.33
121 | B10 | inactive: 1.03
122 | B11 | inactive: 0.35
123 | B12 | inactive: 1.03
124 | B13 | inactive: 0.988
125 | B14 | inactive: 0.712
126 | B15 | inactive: 0.682
127 | B16 | inactive: 0.734
128 | B17 | inactive: 0.477
129 | B18 | inactive: 0.582
130 | B19 | inactive: 0.66

Row | Binder | enrichment score
131 | B20 | inactive: 0.567
132 | B21 | inactive: 0.725
133 | B22 | inactive: 0.603
134 | B23 | inactive: 0.734
135 | B24 | inactive: 0.606
136 | B25 | inactive: 0.678
137 | B26 | inactive: 0.835
138 | B27 | inactive: 1.33
139 | B28 | inactive: 0.703
140 | B29 | inactive: 0.783
141 | B30 | inactive: 2.85
142 | B31 | inactive: 0.621
143 | B32 | inactive: 0.816
144 | B33 | inactive: 0.745
145 | B34 | inactive: 0.449
146 | B35 | inactive: 1.09
147 | B36 | inactive: 0.366
148 | B37 | inactive: 0.871

Biological target: SHP2 N-SH2 domain T52S
Assay: as above
Conditions: peptide library: pTyr-Var

Row | Binder | enrichment score
149 | B1 | inactive: 0.686
150 | B2 | inactive: 0.478
151 | B3 | inactive: 0.724
152 | B4 | inactive: 0.792
153 | B5 | inactive: 0.556
154 | B6 | inactive: 0.915
155 | B7 | inactive: 0.846
156 | B8 | inactive: 0.661
157 | B9 | inactive: 1.19
158 | B10 | inactive: 0.816
159 | B11 | inactive: 0.216
160 | B12 | inactive: 1.04
161 | B13 | inactive: 0.949
162 | B14 | inactive: 0.673
163 | B15 | inactive: 0.643
164 | B16 | inactive: 0.663
165 | B17 | inactive: 0.543
166 | B18 | inactive: 0.762
167 | B19 | inactive: 0.62

Row | Binder | enrichment score
168 | B20 | inactive: 1
169 | B21 | inactive: 0.746
170 | B22 | inactive: 0.591
171 | B23 | inactive: 0.651
172 | B24 | inactive: 0.703
173 | B25 | inactive: 0.4
174 | B26 | inactive: 1.01
175 | B27 | inactive: 1.11
176 | B28 | inactive: 0.781
177 | B29 | inactive: 2.42
178 | B30 | active: 4.15
179 | B31 | inactive: 0.801
180 | B32 | inactive: 0.841
181 | B33 | inactive: 0.612
182 | B34 | inactive: 0.432
183 | B35 | inactive: 1.55
184 | B36 | inactive: 0.445
185 | B37 | inactive: 0.823

Biological target: SHP2 N-SH2 domain wild-type
Assay: as above
Conditions: peptide library: pTyr-Var

Row | Binder | enrichment score
186 | B1 | inactive: 0.886
187 | B2 | inactive: 0.508
188 | B3 | inactive: 1.37
189 | B4 | inactive: 0.77
190 | B5 | inactive: 0.511
191 | B6 | inactive: 1.25
192 | B7 | inactive: 0.851
193 | B8 | inactive: 0.746
194 | B9 | inactive: 1.28
195 | B10 | inactive: 1.62
196 | B11 | inactive: 0.267
197 | B12 | inactive: 1.03
198 | B13 | inactive: 0.936
199 | B14 | inactive: 0.957
200 | B15 | inactive: 0.532
201 | B16 | inactive: 1.07
202 | B17 | inactive: 0.688
203 | B18 | inactive: 0.417
204 | B19 | inactive: 0.733

Row | Binder | enrichment score
205 | B20 | inactive: 0.849
206 | B21 | inactive: 0.899
207 | B22 | inactive: 0.798
208 | B23 | inactive: 1.51
209 | B24 | inactive: 0.964
210 | B25 | inactive: 0.52
211 | B26 | inactive: 0.927
212 | B27 | inactive: 1.41
213 | B28 | inactive: 1.28
214 | B29 | inactive: 0.866
215 | B30 | inactive: 1.6
216 | B31 | inactive: 1.09
217 | B32 | inactive: 1.74
218 | B33 | inactive: 0.826
219 | B34 | inactive: 0.537
220 | B35 | inactive: 1.3
221 | B36 | inactive: 0.584
222 | B37 | inactive: 0.785
